Reference: PubChem BioAssay AID493208 (National Center for Advancing Translational Sciences (NCATS), 2011)
About 340 (0.77%) of roughly 44,000 compounds were called active. About 5% were inconclusive and are not listed. Calls follow the shape of the dose curve; as a rule, active = well fitted inhibition curve with a large enough effect; inconclusive = small, poorly fitted or top-dose-only effect; inactive = flat fitted curve, though single readings scatter. The list shows a part of the results.

experiment: Acumen qHTS Assay for Inhibitors of the mTORC1 Signaling Pathway in MEF (Tsc2-/-, p53-/-) Cells: Sytravon; settings: phospho-rpS6 immunofluorescence/PI, 24 h; series mostly up to 38.3 µM; activity change, negative = inhibition: at the top concentration;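 also: plate controls were DMSO for no effect and rapamycin for full effect; nearly all actives have a fitted effect of over 50% in size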
Summary of the method: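 Read-out: phospho-S6 Alexa-488 intensity over PI intensity per well, scored as % active cells using thresholds from rapamycin (7.5 nM) and DMSO controls. Tsc2-/-, p53-/- MEFs exposed to compound for 24 h; PI cell count recorded as viability.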

Activity change, negative = inhibition, inactive:
O=C(Nc1nc2n(n1)C(c1ccccc1)C=C(c1ccccc1)N2)c1ccccc1 (stereo not given) -5.32%
CS(=O)(=O)c1ccccc1-c1nnc(NC(=O)c2ccc3c(c2)OCCO3)o1 -12.3%
COc1ccc(CNC(=O)CSc2n[nH]c(-c3ccc(F)cc3)n2)cc1 -5.93%
Cc1ccc(C)c(CN2C(=O)c3ccccc3S(=O)(=O)c3ccc(C(=O)Nc4cc(F)ccc4F)cc32)c1 -13.1%
COc1ccc(NC(=O)c2nnn(CC(=O)Nc3c(C)cc(C)cc3C)c2N)cc1OC 6.24%
Fc1ccc(Nc2nc(SCc3cccc(Cl)c3)nc3ccccc23)cc1 -10.2%
COc1ccc(CNC(=O)CN(c2ccc(C)cc2)S(=O)(=O)c2c(C)noc2C)cc1 -0.828%
COc1ccc(CNC(=O)C(CCSC)NS(=O)(=O)c2ccc3c(c2)oc(=O)n3C)cc1 (stereo not given) -6.51%
Cc1cc(C)cc(NC(=O)CSc2nc3c([nH]c4ccccc43)c(=O)n2-c2ccc(F)cc2)c1 -3.34%
CNC(=O)C(=O)NCC(c1ccc2c(c1)OCO2)N1CCOCC1 (stereo not given) -2.94%
CCOc1ccc(-c2cc(NC(=O)c3cccc(Cl)c3)c(C(=O)OC)s2)cc1 -1.81%
CC1=C(C(=O)Nc2ccccc2)C(c2ccc(C)cc2)n2nc(SCc3ccccc3C)nc2N1 (stereo not given) -6.55%
CCCOc1ccc(C(=O)Nc2nonc2-c2ccc(OCC)cc2)cc1 -5.91%
COc1ccc(CNC(=O)C2=C(C)C(=O)OC23CCCCC3)cc1OC -0.0621%
O=C(c1ccc(F)cc1F)N1CCC(c2nc(-c3ccc(S(=O)(=O)N4CCCC4)cc3)no2)CC1 2.95%
CCOC(=O)c1ccc(NC(=O)c2cn(-c3ccccc3)nc2-c2ccc(C)cc2)cc1 -0.454%
CCCc1ccc(S(=O)(=O)N2CCC(c3nnnn3-c3ccc(OC)cc3)CC2)cc1 -0.116%
Cc1oc2cc3oc(=O)c(CC(=O)N4CCCCC4)c(C)c3cc2c1C 0.158%
CCOc1cc(C#N)c(NC(=O)c2ccc(OC)c(S(=O)(=O)N3CCN(c4ccccc4)CC3)c2)cc1OCC 0.673%
CCCOc1ccc(CNC(=O)c2oc3ccc4c(c3c2C)C(=O)CC(C)(CC)O4)cc1 (stereo not given) 2.4%
CSc1nc(-c2ccccc2Cl)nc2c1Cc1c(CO)cnc(C)c1O2 2.72%
COc1ccc(CNC(=O)Cn2c(=O)c3cccn3c3ccccc32)cc1 -3.86%
CCc1nnc2c(N3CCN(c4cccc(C(F)(F)F)c4)CC3)nc3ccccc3n12 -1.22%
COc1cccc(CNc2ncnc3onc(C)c23)c1 -2.66%
O=C(Cn1c(=O)n(Cc2ccco2)c(=O)c2oc3ccccc3c21)Nc1ccc(F)c(Cl)c1 0.712%
CNc1ccc(-c2nc(-c3ccccc3C)no2)cc1[N+](=O)[O-] 1.18%
c1ccc(-c2cc3ncc4c(n3n2)-c2ccccc2OC4)cc1 0.888%
COc1ccc(C2=C(C(C)=O)Sc3nnc(-c4ccc(Cl)cc4)n3N2C(C)=O)cc1OC 2.39%
CN1CCN(CCCNC(=O)c2cnn(-c3ccc(F)cc3)c2-n2cccc2)CC1 -7.18%
O=C(Nc1c(C(=O)N2CCN(c3ccccc3F)CC2)oc2ccccc12)c1ccco1 0.981%
O=C(NCCc1ccccc1)c1ccc2nc(N3CCCCC3)sc2c1 0.877%
CCCn1c2ccccc2c2cnn(CC(=O)NCCCN3CCCCC3)c(=O)c21 -13.5%
CCOc1ccc(NC(=O)c2sc3nc4c(c(-c5ccccc5)c3c2N)C(=O)CC(C)(C)C4)cc1 -3.67%
Cc1ccc(S(=O)(=O)c2cnc(SCC(=O)Nc3ccc4c(c3)OCCO4)[nH]c2=O)cc1Cl -0.48%
CCOc1cc(C2C(C(=O)OC)=C(C)NC3=C2C(=O)c2ccccc23)ccc1OC (stereo not given) -3.7%
O=S(=O)(NCC(c1ccco1)N1CCOCC1)c1ccc(Br)cc1 (stereo not given) 0.749%
Cc1ccccc1-c1ccnc2[nH]n(-c3ccccc3)c(=O)c12 -3.14%
Cc1ccccc1NC(=O)c1cn(-c2ccccc2)nc1-c1ccccc1 2.56%
COc1ccc(OC)c(CN2CCN(S(=O)(=O)c3ccccc3)CC2)c1 -16.7%
Cc1ccc2oc(C(=O)N(Cc3ccc(N(C)C)cc3)CC3CCCO3)c(C)c2c1 (stereo not given) -13.7%
CCOC(=O)c1c(NC(=O)CSc2cn(CCNC(=O)c3cccc(C(F)(F)F)c3)c3ccccc23)sc2c1CCC2 -13.4%
CC(NC(=O)C1CCN(S(=O)(=O)c2ccc(F)cc2)CC1)c1ccccc1 (stereo not given) 7.61%
COc1cccc(C(=O)Nc2nc3ccc(S(=O)(=O)N4CCCC4)cc3s2)c1 -7.11%
CC1CCC(N2CC(=O)N(C3CCCCC3)C(c3ccc(Cl)cc3)C2=O)CC1 (stereo not given) 0.244%
CC(C)Oc1ccc(C(=O)N2CCC(c3nc4ccccc4o3)CC2)cc1 -2.75%
COc1ccc(-c2cc(C(=O)Oc3ccc(C)cc3)c3ccccc3n2)cc1 4.28%
Cc1ccc(NS(=O)(=O)c2ccc(-c3cnc(C4CC4)o3)cc2)cc1N(C)C -18.4%
CC(=O)Nc1ccc(NC(=O)CSc2nccn2Cc2ccc3c(c2)OCO3)cc1 -2.4%
COc1cc(NC(=O)CSc2ncc3c(n2)-c2ccc(Cl)cc2N(Cc2ccccc2)S3(=O)=O)cc(OC)c1 3.27%
CC(C)c1ccc(NC(=O)CSC2=Nc3ccccc3C3=NC(CC(=O)NCc4cccs4)C(=O)N23)cc1 (stereo not given) 1.3%
CN(C)CCNC(=O)C1CCN(c2ncnc3c2nc2n3CCCCC2)CC1 -2.23%
O=C1CSC2(C(=O)N(Cc3ccccc3F)c3ccccc32)N1c1cccc(C(F)(F)F)c1 (stereo not given) -2.98%
O=C(Cn1ncc2c3ccccc3n(Cc3ccc(Cl)cc3)c2c1=O)NCCC1=CCCCC1 -1.47%
CCOc1ccccc1CNC(=O)CCc1c(C)nn(-c2ccc(N3CCCCC3)nn2)c1C -13.3%
CCc1ccc(C(=O)COC(=O)C(Cc2c[nH]c3ccccc23)NC(=O)c2ccc(CC)cc2)cc1 (stereo not given) -0.74%
COc1ccc(CNC(=O)c2cc3cc4ccc(C)cc4nc3o2)cc1 -6.88%
O=C(Cc1ccccc1)Nc1c(C(=O)c2ccccc2)oc2ccccc12 3.43%
Cc1ccc(NC(=O)CSc2nnc(-c3nnn(-c4ccc(F)cc4)c3C)o2)cc1Br 0.441%
Cc1nc(-c2cccc(F)c2)sc1CCNC(=O)c1c(F)cccc1Cl -2.28%
COc1cccc(N2CCN(C(=O)c3cc4c(s3)-c3c(C)cccc3OC4)CC2)c1 -8.1%
CCCCn1c(=NC(=O)C(C)(C)Oc2ccc(Cl)cc2)c(C(=O)OCC)cc2c(=O)n3ccccc3nc21 1.45%
Cc1ccc(OCC(=O)Nc2nonc2-c2ccc(C)c(C)c2)cc1C -0.314%
O=C(Nc1ccc(OC(F)(F)F)cc1)C(Cc1ccccc1)NS(=O)(=O)c1cccc2nsnc12 (stereo not given) -9.75%
COc1ccccc1C(=O)Nc1cccc(C(=O)OCc2cc(=O)n3nc(C4CC4)sc3n2)c1 0%
CC(C)Cc1nn2c(=O)cc(COC(=O)CNC(=O)c3ccc(C(C)(C)C)cc3)nc2s1 -5.21%
Cc1ccc(C)c(CNC(=O)c2ccc3c(c2)nc2n3CCOC2)c1 0%
COC(=O)c1ccc(C2c3c(oc4ccc(C)cc4c3=O)C(=O)N2Cc2ccc3c(c2)OCO3)cc1 (stereo not given) 13.3%
Cc1ccc(S(=O)(=O)c2nnn3c2nc(NCc2ccc4c(c2)OCO4)c2sccc23)cc1 0.145%
CCOC(=O)c1c(Nc2ccc(O)cc2)nnc(-c2ccccc2)c1-c1ccccc1 -8.88%
COc1cccc(CNC(=O)Cn2ccc3cc(S(=O)(=O)N4CCCC4)ccc32)c1OC -13.7%
CCOC(=O)c1cnc2ccc(OC(F)(F)F)cc2c1Nc1ccccc1C(=O)O -7.54%
CCC1Oc2ccc(C)cc2N(CC(=O)NCCc2ccccc2)C1=O (stereo not given) 15.3%
Cc1ccc(NC(=O)CCCN2C(=O)COc3ccc(C)cc32)c(Cl)c1 0.128%
COc1cccc(/C=C/c2nc(C#N)c(N3CCCCCC3)o2)c1 -11.9%
CCOC(=O)c1cnn2c(C(F)(F)F)cc(-c3ccc(Br)cc3)nc12 2.35%
COc1ccc(-c2cnc(C)o2)cc1S(=O)(=O)Nc1cccc(C(F)(F)F)c1 -9.69%
O=C(Nc1cccc(C(F)(F)F)c1)C1CCN(S(=O)(=O)c2cccc3nsnc23)CC1 -7.57%
O=C(Nc1ccc(OCc2cc(=O)n3c4c(sc3n2)CCCC4)cc1)c1ccc(F)cc1 0.659%
Cc1ccccc1-c1noc(CSc2nc(-c3ccc(F)cc3)cc(=O)[nH]2)n1 -26.5%
COc1ccc(-n2nnnc2SCC(=O)NCCc2ccccc2)cc1 1.81%
COC(=O)Cc1c(C)c2ccc3c(c2oc1=O)CN(Cc1ccc(C)cc1)CO3 0%
NC(=O)C1CCN(c2ncnc3c2cnn3-c2cccc(Cl)c2)CC1 6.44%
CC(C)COc1ccc(C(=O)Nc2onc3c2CCCC3)cc1 -5.52%
Cc1ccc(NC(=O)Cn2nc(C(F)(F)F)c3c2CCC3)cc1C -11.9%
CCOc1ccc(CCNC(=O)CCn2c(=O)c3cccn3c3ccc(F)cc32)cc1 4.19%
Cc1cccc(CNC(=O)CCCN2C(=O)c3cccnc3Oc3ccccc32)c1 -15.5%
COc1ccc(-c2noc(-c3ccc(NCc4ccco4)c([N+](=O)[O-])c3)n2)cc1OC -1.46%
CCc1ccc(N2CC(c3nc4ccccc4n3Cc3ccccc3C)CC2=O)cc1 (stereo not given) 1.73%
CCOc1ccc(C(=O)NCCc2sc(-c3cccc(F)c3)nc2C)cc1OCC -0.667%
O=C(CSc1oc(-c2cccs2)nc1S(=O)(=O)c1ccccc1)Nc1ccc(F)cc1 -18%
CN(C(=O)CSc1nc2ccc(NC(=O)c3ccccc3)cc2s1)c1ccccc1 -21.3%
Cc1ccc(C2=NN(CCC(=O)NCCc3cccc(C)c3)C(=O)CC2)cc1 -1.55%
COc1ccc(Cn2c(NCC(C)C)nc3c2c(=O)n(C)c(=O)n3C)cc1 0.859%
CC(=O)Nc1cccc(-c2nnc(SCC(=O)c3ccc([N+](=O)[O-])cc3)o2)c1 -3.8%
COc1ccc(OC)c(CNC(=O)c2cnc(N(C)C)nc2)c1 0%
